In all, about 110,000 compounds were measured (“z-score”: median about -0.1, highest 2% from about 2 on). The list shows a part of the results. Calls of active or inactive are those of the source.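 The calls were made as follows: active = z-score in the third read window above 3 or below -3; inactive = the rest.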
Each molecule was assayed against Metabotropic glutamate receptor 8 (Rattus norvegicus) (UniProt P70579) (assay: rat mGluR8 modulators via GIRK flux, primary screen, cell-based, thallium flux, HTS (AID 488969)). Conditions: HEK293 rat mGluR8, GIRK (G protein-gated inwardly rectifying potassium channel) thallium flux, FluoZin2; at 10 µM; stronger effect = higher value; submaximal glutamate (EC20) added with thallium.
Sequence of UniProt P70579 (P70579 whole entry, looked up): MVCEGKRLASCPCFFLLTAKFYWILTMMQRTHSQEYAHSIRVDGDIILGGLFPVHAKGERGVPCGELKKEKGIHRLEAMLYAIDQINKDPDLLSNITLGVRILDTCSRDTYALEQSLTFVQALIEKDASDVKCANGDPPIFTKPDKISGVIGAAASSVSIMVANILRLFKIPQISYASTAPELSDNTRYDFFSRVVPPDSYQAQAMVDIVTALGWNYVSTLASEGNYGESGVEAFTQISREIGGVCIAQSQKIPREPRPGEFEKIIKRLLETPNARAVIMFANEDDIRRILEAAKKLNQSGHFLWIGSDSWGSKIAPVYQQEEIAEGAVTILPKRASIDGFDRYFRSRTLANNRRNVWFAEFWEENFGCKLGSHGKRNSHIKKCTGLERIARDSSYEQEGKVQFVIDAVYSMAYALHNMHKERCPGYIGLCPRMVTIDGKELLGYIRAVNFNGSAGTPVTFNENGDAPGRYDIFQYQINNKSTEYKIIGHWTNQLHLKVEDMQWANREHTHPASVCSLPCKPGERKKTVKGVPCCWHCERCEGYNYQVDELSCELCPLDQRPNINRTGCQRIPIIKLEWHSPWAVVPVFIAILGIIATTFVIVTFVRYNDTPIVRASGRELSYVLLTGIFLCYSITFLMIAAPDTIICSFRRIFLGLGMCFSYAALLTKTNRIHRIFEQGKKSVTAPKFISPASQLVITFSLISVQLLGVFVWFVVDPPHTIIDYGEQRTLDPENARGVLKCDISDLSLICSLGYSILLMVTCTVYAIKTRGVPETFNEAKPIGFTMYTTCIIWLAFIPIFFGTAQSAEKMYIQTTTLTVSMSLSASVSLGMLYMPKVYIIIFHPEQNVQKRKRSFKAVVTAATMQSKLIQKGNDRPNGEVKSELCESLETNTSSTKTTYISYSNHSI
Work on `O=C(NCc1ccc(F)cc1)C1CCCN(S(=O)(=O)c2cccnc2)C1` (stereo not given) yielded a z-score of 0.396.
`CCN(CC)c1ccc(/C=N/N2CCN(Cc3ccccc3)CC2)c(O)c1` was tested, and the z-score was 0.00652.
With `COc1ccc(CCNC(=S)Nc2ccccc2C)cc1` the z-score was 0.829.
Molecule `O=C1NC(c2cccnc2)C(C(=O)c2cccs2)C(O)(C(F)(F)F)N1` (stereo not given) has a z-score of 0.215.
With `C/C(=N\OCC(=O)N/N=C/c1ccccc1O)c1cccs1` the z-score was 0.855.
For `O=C(Nc1ccc(Cl)c([N+](=O)[O-])c1)c1ccc(NCCCN2CCOCC2)c([N+](=O)[O-])c1`, the z-score was -0.0118.
In the case of `COc1ccc(-c2cc(CNC(=O)CN3CCN(C)CC3)on2)cc1`, the z-score was 0.631.
`C=CCNC(=O)c1ccccc1NC(=O)c1cccc2ccccc12` showed a z-score of -0.251.
`CCOc1ccc(C)cc1S(=O)(=O)Nc1ccc(Cl)cn1` was tested, and the z-score was -0.0631.
`CC1Cc2cccc3c(O)c(C(=O)c4nn[nH]n4)c(=O)n1c23` (stereo not given) showed a z-score of 0.029.
`COc1ccc(N2CCN(C(=O)CNC(=O)Cn3c(C)cc4ccccc4c3=O)CC2)cc1` showed a z-score of -0.427.
`O=C(Nc1ccc(Cl)c(Cl)c1)N1CC=C(c2ccccc2)CC1` gave a z-score of 0.184.
`O=[N+]([O-])c1cccc(/C=N\N2CCN(Cc3ccccc3Cl)CC2)c1` gave a z-score of -0.0536.
`Cc1ccc(-c2nc(C#N)c(NCc3cccc4c3OCO4)o2)cc1` showed a z-score of -0.0194.
`C(=C/c1ccnc2nc(SC/C=C/c3ccccc3)nn12)/c1ccccc1` gave a z-score of 0.107.
`O=C(C1CCC(=O)N1Cc1ccccc1Cl)N1CCN(c2ccc(F)cc2)CC1` (stereo not given) was tested, and the z-score was 0.184.
Molecule `CN1CCc2nc(SCc3ccc(Cl)cc3)c(C#N)c(-c3cccs3)c2C1` has a z-score of 0.101.
`Cc1occc1C(=O)NNC(=O)c1ccccc1Br` was tested, and the z-score was 0.0329.
`CCC(=O)NC(Nc1nc2ccc(C)cc2s1)(C(=O)OC)C(F)(F)F` (stereo not given) was tested, and the z-score was 0.168.
`COc1cc(NC(=O)Cn2c(=O)n(-c3cccc(C)c3)c(=O)c3c(C)c(C)sc32)cc(OC)c1` showed a z-score of -0.208.
`Cc1cc(C)c(NC(=O)C(C)Sc2nc3ccc(N4C(=O)c5ccccc5C4=O)cc3s2)c(C)c1` (stereo not given) was tested, and the z-score was -1.42.
`CN1CCN(S(=O)(=O)c2ccc(NC(=O)c3ccc(F)cc3)cc2)CC1` was tested, and the z-score was 0.931.
`O=C(Cn1ccc2ccccc2c1=O)NCCC(=O)N1CCN(C2CCCCC2)CC1` gave a z-score of -0.0939.
`O=C(NCc1ccccn1)c1cc(-c2ccccc2)nc2ccccc12` was tested, and the z-score was -0.314.
`Cc1ccc(S(=O)(=O)N2CCN(c3ccc(C(=O)N4CCOCC4)cc3[N+](=O)[O-])CC2)cc1` showed a z-score of 0.647.
With `O=C(CSc1nnc(-c2ccccc2Br)o1)N1CCN(C(=O)c2ccco2)CC1` the z-score was -0.13.
`O=C(NNC(=O)c1ccccc1-n1cccc1)c1ccc(Cl)cc1Cl` gave a z-score of 0.632.
With `CCOC(=O)C(NCc1ccccc1OC)(NC(=O)CC)C(F)(F)F` (stereo not given) the z-score was 0.04.
With `Cc1cc(OCC(=O)NCc2nc(-c3ccccc3)no2)c(C)cc1Br` the z-score was 1.12.
`Cc1n[nH]c(=S)n1/N=C/c1ccccc1OCc1ccc(Cl)cc1` showed a z-score of 0.0338.
With `Nc1nc(CSCCO)nc(Nc2ccccc2)n1` the z-score was -0.257.
In the case of `Cc1nc(C(F)(F)F)c(C(=O)NC(=O)Nc2ccc(OC(F)(F)F)cc2)s1`, the z-score was 0.438.
`COCCCNC(=O)C1CCCCN1S(=O)(=O)c1ccc(F)cc1` (stereo not given) gave a z-score of 0.633.
`COc1ccc(-c2cc(C#N)nc(Oc3ccc(Cl)cc3)n2)cc1` showed a z-score of -0.367.
With `CCOc1ccccc1Nc1nnc(C)c(=O)[nH]1` the z-score was -0.155.
`CCCN1C(=O)SC(CC(=O)Nc2ccccc2)C1=O` (stereo not given) showed a z-score of -0.353.
`COc1ccc(C(=O)NCC(=O)OCc2ccc(F)cc2Cl)cc1OC` showed a z-score of -0.361.
Molecule `CC(C)n1nnnc1SCC(=O)N1CCN(C(=O)c2ccco2)CC1` has a z-score of 0.14.
Work on `CC(C)CCNC(=O)Nc1ccc2c(c1)N(C)C(=O)CS2` yielded a z-score of 0.22.
In the case of `CCC1=NN(C(=O)c2cccc(Br)c2)C(O)(c2ccc(Br)cc2)C1` (stereo not given), the z-score was active: 3.84.
Molecule `CN(C)C(=O)c1ccc(NC(=O)c2cc(-n3cnnc3)ccc2Cl)cc1` has a z-score of -0.238.
`Cc1ccc(OCC(=O)Nc2ccc3c(c2)OC(F)(F)O3)c([N+](=O)[O-])n1` showed a z-score of 0.0335.
`O=C(COC(=O)C1(c2ccc(Cl)cc2)CCCC1)NC1CCS(=O)(=O)C1` (stereo not given) gave a z-score of -0.164.
Work on `Cc1ccc(C(=O)NNC2=Nc3cccc4cccc2c34)cc1` yielded a z-score of -0.056.
Molecule `CC(Oc1ccc(Cl)cc1Cl)C(=O)NC1=NN(c2ccccc2)C(=O)C1` (stereo not given) has a z-score of -0.244.
`Cc1cccc(OCCCC(=O)Nc2ccc(S(N)(=O)=O)cc2)c1C` gave a z-score of -0.329.
`CCN1CCc2nc(NC(=O)CC(c3ccccc3)c3ccccc3)sc2C1` was tested, and the z-score was 0.113.
`CCC1CCCCN1C(=O)N[C@@H](CCSC)C(=O)OC` (stereo not given in full) was tested, and the z-score was -0.0219.
`CCN(CC)CCCN1C(=O)C(O)=C(C(=O)c2ccc(C)o2)C1c1ccc(C)o1` (stereo not given) showed a z-score of -0.166.
`O=C(O)C1CC=C(Cl)CC1C(=O)NCC1OCCc2ccccc21` (stereo not given) showed a z-score of 0.0523.
With `C/C(=N\NC(=S)NC1CCCCC1)c1ccccc1` the z-score was -0.178.
`O=C(N/N=C/c1c[nH]c2ccccc12)c1ccncc1` gave a z-score of -0.168.
With `O=C1/C(=C/c2cccs2)CCc2ccccc21` the z-score was 0.483.
In the case of `O=C1C2C3C=CC(C4CC34)C2C(=O)N1/N=C/c1ccc([N+](=O)[O-])s1` (stereo not given), the z-score was 0.0104.
`COc1ccc(-c2cn[nH]c2-c2ccc(OCc3ccc([N+](=O)[O-])cc3)cc2O)cc1` gave a z-score of 0.133.
In the case of `c1cncc(Nc2nc(-c3cccs3)cs2)c1`, the z-score was -0.078.
`O=C(CCCc1c[nH]c2ccccc12)N1CCCCCC1` was tested, and the z-score was -1.05.
`COC(=O)/C=C1\C(=O)N(c2nc3ccccc3s2)C(=S)N1c1ccc(F)cc1` gave a z-score of 0.0438.
`CC(C)(C)NC(=O)Cc1ccc(S(=O)(=O)N2CCCC2)s1` showed a z-score of 0.00183.
Molecule `CC(NC(=O)C1CCCC1)c1ccc2c(c1)OCCO2` (stereo not given) has a z-score of -0.343.
For `CCc1nc(NCCN)c(C#N)c2c1CSC(C)(C)C2`, the z-score was -0.174.
`COC(=O)c1c(NC(=O)CCc2ccc(C)o2)sc(C)c1C` showed a z-score of -0.471.
`CC(=O)Nc1sc2c(c1C#N)CCCC2` was tested, and the z-score was 0.268.
Work on `Cc1ccccc1-n1c(=O)c(C#N)cc2c(=O)n3ccccc3nc21` yielded a z-score of -0.02.
`Cc1ccc(S(=O)(=O)N2CCOCC2)cc1NC(=O)COC(=O)CSc1ccc(Br)cc1C` was tested, and the z-score was -0.132.
`O=C(O)C1CC=CCC1C(=O)Nc1ccccc1` (stereo not given) was tested, and the z-score was -0.0276.
With `CC1CCCN(C(=O)CCc2ccccc2)C1` (stereo not given) the z-score was -0.268.
Work on `COc1ccc(N2C(=O)C(Cl)=C(N3CCCC(C)C3)C2=O)cc1` (stereo not given) yielded a z-score of -0.539.
Work on `CN1CCN(C(=O)CCC(=O)c2ccc(F)cc2)CC1` yielded a z-score of 0.574.
Work on `C(=N\n1cnnc1)/c1nc2ccccc2[nH]1` yielded a z-score of -0.217.
